The whole screen tested about 390,000 compounds, of which about 2,200 (0.56%) were called active. This list was built around the results that the source calls inconclusive (neither active nor inactive); the mix of calls is not that of the screen. Calls come from the whole dose curve; as a rule, active = well fitted inhibition curve with a large enough effect; inconclusive = small, poorly fitted or top-dose-only effect; inactive = no such curve, though single readings can be large or run the other way. Where the call is inconclusive, the potency comes from a doubtful curve fit.
biological target: Chromobox protein homolog 1 (Homo sapiens) (UniProt P83916); test: HTS for Inhibitors of HP1-beta Chromodomain Interactions with Methylated Histone Tails; conditions: AlphaScreen HP1-beta / biotin-H3K9me3 peptide binding; series mostly up to 114 µM; activity change, negative = inhibition: at the top concentration; note: nearly all actives have a fitted effect of over 70% in size
Summary of the method: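 HP1-beta protein (50 nM final) preincubated 30 min at room temperature with biotinylated H3(1-18)K9me3 peptide (50 nM) in PBS pH 7.4, 0.01% Tween-20, then compound added for 30 min. AlphaScreen streptavidin donor/nickel chelate acceptor beads (10 ug/mL final), 30 min dark, luminescence read.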
Potency is the fitted concentration of half-maximal effect; tags give direction and shape of the fitted curve.

UniProt P83916, sequence (P83916 whole entry, looked up): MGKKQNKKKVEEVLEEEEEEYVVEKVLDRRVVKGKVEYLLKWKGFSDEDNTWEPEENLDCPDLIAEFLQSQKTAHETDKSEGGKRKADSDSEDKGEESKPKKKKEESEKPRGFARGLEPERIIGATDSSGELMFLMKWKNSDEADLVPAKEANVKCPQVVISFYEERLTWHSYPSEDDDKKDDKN

| SMILES | activity change, negative = inhibition | Potency |
| --- | --- | --- |
| CCCCC(CC)CN1CN(CC(CC)CCCC)CC(C)(N)C1 (centres undefined) | inactive: 19.4% |  |
| COc1ccc(C(=O)NC(=S)N(Cc2ccccc2)Cc2ccccc2)cc1 |  | inconclusive: 39.8 µM [inhibitor, single point] |
| Cc1csc(=Nc2ccccc2)n1Cc1ccco1 |  | inconclusive: 17.8 µM [inhibitor, full curve] |
| COc1cccc(N(CC(=O)NCCSCc2ccco2)S(=O)(=O)c2ccccc2)c1 | inactive: -4.41% |  |
| O=C(c1ccco1)N(CCC(c1ccccc1)c1ccco1)Cc1ccco1 (centres undefined) |  | inconclusive: 50.1 µM [inhibitor, single point] |
| COc1cccc(C(=O)N2CCN(Cc3cn[nH]c3-c3ccc(F)cc3F)CC2)c1 |  | inconclusive: 39.8 µM [inhibitor, single point] |
| COc1cc2c3c(c1)/C(=C1/SC(NC(C)=O)=NC1=O)C(=O)N3C(C)(C)C=C2C |  | inconclusive: 8.91 µM [inhibitor, full curve, poor fit] |
| O=S(=O)(c1cccc(C(F)(F)F)c1)N1CCN(CC(O)COCc2ccccc2)CC1 (centres undefined) |  | inconclusive: 17.8 µM [inhibitor, full curve, poor fit] |
| Cc1ccc(/C=C2/C(=O)N(c3ccccc3)C(=S)N2C)o1 |  | inconclusive: 15.8 µM [inhibitor, full curve, poor fit] |
| COc1ccc(OC)c(NC(=O)CCn2c(=S)[nH]c3ccccc3c2=O)c1 | inactive: 37% |  |
| c1coc(-c2nc3ccccn3c2Nc2ccc3c(c2)OCCO3)c1 |  | inconclusive: 50.1 µM [inhibitor, partial curve, poor fit] |
| CCCn1ncc(C(=O)N(C)C2CCCN(Cc3ccccc3F)C2)c1C (centres undefined) | inactive: 23.4% |  |
| COc1ccc(OCc2nn3c(Cn4cnc5ccccc54)nnc3s2)cc1 |  | inconclusive: 20 µM [inhibitor, partial curve, poor fit] |
| COc1ccc2cc([C@H](C)C(=O)N(C)Cc3ccccc3N3CCCC3)ccc2c1 |  | inconclusive: 31.6 µM [inhibitor, partial curve, poor fit] |
| O=c1c(C(c2ccc(Br)cc2)c2c(O)nc3n(c2=O)CCS3)c(O)nc2n1CCS2 | inactive: 38.8% |  |
| CSCC[C@H](NC(=O)OC(C)(C)C)c1nnc(SCC=C(C)C)o1 | inactive: 16.3% |  |
| CCCc1cc(C(=O)NNC(=S)Nc2cccc(C)c2)cs1 |  | inconclusive: 22.4 µM [inhibitor, partial curve, poor fit] |
| Brc1ccc2[nH]c3c(N4CCc5ccccc5C4)ncnc3c2c1 | inactive: 58% |  |
| COC1(NS(=O)(=O)c2ccc(Br)cc2)C(C)=CC(=O)C=C1C |  | inconclusive: 31.6 µM [inhibitor, partial curve] |
